Data from paper PMC3764795.
These are yes or no findings as the source states them, for the method shown. In cells and extracts the contact can be indirect. Some binding calls cover weakened binding; strength is not graded here. For part of these data: Where a sequence is shown, tags or fusion partners need not be part of it.

Chains of the proteins cited; added tags and fusions are not shown. Lines headed by an entry give the natural chain unless they say otherwise; changes in a name come on top. A line that says so, or that is headed by a name, gives the form on record, which may keep a tag or linker.
UniProt P62993: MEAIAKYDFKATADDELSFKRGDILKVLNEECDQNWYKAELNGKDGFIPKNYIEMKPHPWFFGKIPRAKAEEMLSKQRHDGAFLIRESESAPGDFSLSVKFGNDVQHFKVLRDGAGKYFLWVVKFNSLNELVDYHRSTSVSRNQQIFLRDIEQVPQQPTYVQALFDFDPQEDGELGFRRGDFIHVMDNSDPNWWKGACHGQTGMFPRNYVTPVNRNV
UniProt Q9GZV5: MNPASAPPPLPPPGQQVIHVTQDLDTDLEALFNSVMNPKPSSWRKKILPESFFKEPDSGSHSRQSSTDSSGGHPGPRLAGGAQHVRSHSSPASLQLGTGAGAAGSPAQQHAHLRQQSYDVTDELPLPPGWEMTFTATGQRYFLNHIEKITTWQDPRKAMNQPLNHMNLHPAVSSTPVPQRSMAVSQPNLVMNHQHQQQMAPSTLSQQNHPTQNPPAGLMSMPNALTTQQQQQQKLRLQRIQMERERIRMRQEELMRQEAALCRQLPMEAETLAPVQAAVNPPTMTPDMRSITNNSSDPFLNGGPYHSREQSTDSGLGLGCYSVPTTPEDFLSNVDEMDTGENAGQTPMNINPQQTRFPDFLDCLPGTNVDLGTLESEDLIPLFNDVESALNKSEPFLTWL
3×FLAG-tagged TAZ (∂WW) (Q9GZV5, form named): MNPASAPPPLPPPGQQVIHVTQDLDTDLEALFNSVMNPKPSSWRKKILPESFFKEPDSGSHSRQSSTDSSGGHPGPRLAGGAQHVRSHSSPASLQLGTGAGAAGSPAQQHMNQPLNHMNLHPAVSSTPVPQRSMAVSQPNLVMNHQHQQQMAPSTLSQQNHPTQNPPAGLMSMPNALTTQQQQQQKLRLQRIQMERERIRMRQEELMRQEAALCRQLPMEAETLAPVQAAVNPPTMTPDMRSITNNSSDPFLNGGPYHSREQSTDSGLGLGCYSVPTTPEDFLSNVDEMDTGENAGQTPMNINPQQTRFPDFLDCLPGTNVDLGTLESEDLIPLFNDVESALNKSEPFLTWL
UniProt Q14155: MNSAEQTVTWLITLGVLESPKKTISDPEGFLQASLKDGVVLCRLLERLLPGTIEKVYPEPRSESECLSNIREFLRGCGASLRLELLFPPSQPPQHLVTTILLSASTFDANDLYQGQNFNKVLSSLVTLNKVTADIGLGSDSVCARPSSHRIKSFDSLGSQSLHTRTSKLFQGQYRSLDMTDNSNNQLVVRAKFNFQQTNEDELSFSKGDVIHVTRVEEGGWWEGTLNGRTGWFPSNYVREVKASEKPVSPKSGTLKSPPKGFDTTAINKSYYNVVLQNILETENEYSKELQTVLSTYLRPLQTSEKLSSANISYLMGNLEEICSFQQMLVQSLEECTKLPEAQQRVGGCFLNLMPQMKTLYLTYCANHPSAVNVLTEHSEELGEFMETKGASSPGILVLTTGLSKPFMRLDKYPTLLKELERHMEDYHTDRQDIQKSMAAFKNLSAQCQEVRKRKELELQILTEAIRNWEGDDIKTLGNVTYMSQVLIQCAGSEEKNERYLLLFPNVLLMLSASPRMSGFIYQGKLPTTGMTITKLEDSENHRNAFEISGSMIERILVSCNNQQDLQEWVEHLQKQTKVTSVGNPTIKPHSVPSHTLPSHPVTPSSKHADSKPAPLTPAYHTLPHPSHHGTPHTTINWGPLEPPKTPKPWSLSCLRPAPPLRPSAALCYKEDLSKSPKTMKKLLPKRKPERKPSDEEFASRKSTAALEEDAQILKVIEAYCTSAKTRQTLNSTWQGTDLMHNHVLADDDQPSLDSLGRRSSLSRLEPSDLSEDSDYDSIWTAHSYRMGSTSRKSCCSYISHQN
UniProt P46934: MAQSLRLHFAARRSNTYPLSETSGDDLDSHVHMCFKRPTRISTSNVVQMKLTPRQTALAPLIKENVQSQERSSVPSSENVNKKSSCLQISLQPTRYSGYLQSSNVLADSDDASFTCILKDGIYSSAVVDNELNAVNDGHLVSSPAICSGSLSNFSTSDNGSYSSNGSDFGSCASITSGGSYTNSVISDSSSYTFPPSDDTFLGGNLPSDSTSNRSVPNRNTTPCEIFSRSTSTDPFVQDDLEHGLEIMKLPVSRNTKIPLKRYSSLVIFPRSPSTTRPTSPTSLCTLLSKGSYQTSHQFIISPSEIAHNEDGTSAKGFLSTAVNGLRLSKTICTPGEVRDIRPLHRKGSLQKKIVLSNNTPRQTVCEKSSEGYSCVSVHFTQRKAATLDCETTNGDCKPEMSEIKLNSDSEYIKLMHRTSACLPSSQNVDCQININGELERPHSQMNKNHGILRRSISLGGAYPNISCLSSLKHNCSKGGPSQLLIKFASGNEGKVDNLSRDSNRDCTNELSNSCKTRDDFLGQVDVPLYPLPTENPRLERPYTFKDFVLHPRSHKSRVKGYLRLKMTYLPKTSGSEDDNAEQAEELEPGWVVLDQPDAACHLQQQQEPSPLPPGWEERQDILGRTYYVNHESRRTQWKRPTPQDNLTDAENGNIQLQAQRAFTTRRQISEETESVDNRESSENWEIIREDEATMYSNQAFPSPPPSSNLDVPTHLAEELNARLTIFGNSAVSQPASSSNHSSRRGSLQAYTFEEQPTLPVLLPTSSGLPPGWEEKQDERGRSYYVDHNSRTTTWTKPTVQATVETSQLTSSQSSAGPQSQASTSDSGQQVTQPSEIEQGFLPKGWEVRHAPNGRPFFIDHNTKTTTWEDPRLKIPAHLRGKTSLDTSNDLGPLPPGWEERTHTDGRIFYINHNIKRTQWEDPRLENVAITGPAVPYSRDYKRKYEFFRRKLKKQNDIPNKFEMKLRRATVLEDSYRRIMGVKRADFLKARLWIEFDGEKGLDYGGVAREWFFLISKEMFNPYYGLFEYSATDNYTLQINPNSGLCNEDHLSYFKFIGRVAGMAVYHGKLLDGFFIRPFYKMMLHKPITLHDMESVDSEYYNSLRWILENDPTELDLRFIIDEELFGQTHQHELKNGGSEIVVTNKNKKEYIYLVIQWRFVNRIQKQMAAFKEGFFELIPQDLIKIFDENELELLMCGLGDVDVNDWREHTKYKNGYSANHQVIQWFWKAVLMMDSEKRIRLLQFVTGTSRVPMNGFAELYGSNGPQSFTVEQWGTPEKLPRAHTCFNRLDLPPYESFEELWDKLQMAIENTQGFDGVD

T1: GST-tagged cytosolic PRRG4 (GST-PRRG4cyto) (human) (UniProt Q9BZD6)
T1 sequence: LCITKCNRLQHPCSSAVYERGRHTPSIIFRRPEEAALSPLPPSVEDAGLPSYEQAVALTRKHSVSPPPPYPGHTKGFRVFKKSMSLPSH

T2: GST-PRRG4 Y207A (human) (UniProt Q9BZD6)
T2 sequence: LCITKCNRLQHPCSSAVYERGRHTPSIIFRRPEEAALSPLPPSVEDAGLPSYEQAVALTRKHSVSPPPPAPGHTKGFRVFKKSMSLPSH

T3: FLAG-Myc-tagged OSTF (UniProt Q92882)
T3 sequence: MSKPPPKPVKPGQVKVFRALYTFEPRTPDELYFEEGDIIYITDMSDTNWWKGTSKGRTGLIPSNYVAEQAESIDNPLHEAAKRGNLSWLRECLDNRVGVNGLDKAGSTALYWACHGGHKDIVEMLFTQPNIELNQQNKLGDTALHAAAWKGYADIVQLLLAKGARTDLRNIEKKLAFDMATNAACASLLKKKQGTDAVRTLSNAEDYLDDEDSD


Tests used:
[1] = molecular target: T1, GST-tagged cytosolic PRRG4 (GST-PRRG4cyto) (human); experiment: pull-down; GST pulldown with GST-PRRG4cyto (wild type or mutant) or GST only made in E. coli; overexpressed or endogenous proteins of cells; Western blot with anti-FLAG or antibodies against the interacting proteins; only the target purified
[2] = molecular target: T2, GST-PRRG4 Y207A (human); experiment: as above
[3] = molecular target: T3, FLAG-Myc-tagged OSTF; experiment: co-IP; cytosolic PRRG4 co-expressed with FLAG-tagged proteins in HEK293; anti-FLAG immunoprecipitation from lysates, immunoblot with anti-PRRG4
[4] = molecular target: FLAG-Myc-tagged GRB2 (human) (UniProt P62993); experiment: as above
[5] = molecular target: FLAG-tagged WWTR1/TAZ, wild type (human (OriGene clone); not stated (Addgene clone)) (UniProt Q9GZV5); experiment: as above
[6] = molecular target: FLAG-tagged cool1/βPIX (UniProt Q14155); experiment: as above

| Molecule | binding [1] | binding [2] | further results |
| --- | --- | --- | --- |
| 3×FLAG-tagged TAZ (S89A) (from UniProt Q9GZV5 1-400) | binds | – | – |
| 3×FLAG-tagged TAZ (∂393) (from UniProt Q9GZV5 1-393) (domain or fragment) | binds | – | – |
| 3×FLAG-tagged TAZ (∂WW) (from UniProt Q9GZV5 1-400) | binds | – | – |
| FLAG-tagged WWTR1/TAZ, wild type (from UniProt Q9GZV5 1-400) | binds | binds | – |
| FLAG-tagged cool1/βPIX (from UniProt Q14155 1-803) | no binding | – | – |
| endogenous NEDD4 (from UniProt P46934 1-1319) | binds | binds | – |
| MAGI-3 (protein, UniProt Q5TCQ9 1-1481) MSKTLKKKKHWLSKVQECAVSWAGPPGDFGAEIRGGAERGEFPYLGRLREEPGGGTCCVVSGKAPSPGDVLLEVNGTPVSGLTNRDTLAVIRHFREPIRLKTVKPGKVINKDLRHYLSLQFQKGSIDHKLQQVIRDNLYLRTIPCTTRAPRDGEVPGVDYNFISVEQFKALEESGALLESGTYDGNFYGTPKPPAEPSPFQPDPVDQVLFDNEFDAESQRKRTTSVSKMERMDSSLPEEEEDEDKEAINGSGNAENRERHSESSDWMKTVPSYNQTNSSMDFRNYMMRDETLEPLPKNWEMAYTDTGMIYFIDHNTKTTTWLDPRLCKKAKAPEDCEDGELPYGWEKIEDPQYGTYYVDHLNQKTQFENPVEEAKRKKQLGQVEIGSSKPDMEKSHFTRDPSQLKGVLVRASLKKSTMGFGFTIIGGDRPDEFLQVKNVLKDGPAAQDGKIAPGDVIVDINGNCVLGHTHADVVQMFQLVPVNQYVNLTLCRGYPLPDDSEDPVVDIVAATPVINGQSLTKGETCMNPQDFKPGAMVLEQNGKSGHTLTGDGLNGPSDASEQRVSMASSGSSQPELVTIPLIKGPKGFGFAIADSPTGQKVKMILDSQWCQGLQKGDIIKEIYHQNVQNLTHLQVVEVLKQFPVGADVPLLILRGGPPSPTKTAKMKTDKKENAGSLEAINEPIPQPMPFPPSIIRSGSPKLDPSEVYLKSKTLYEDKPPNTKDLDVFLRKQESGFGFRVLGGDGPDQSIYIGAIIPLGAAEKDGRLRAADELMCIDGIPVKGKSHKQVLDLMTTAARNGHVLLTVRRKIFYGEKQPEDDSSQAFISTQNGSPRLNRAEVPARPAPQEPYDVVLQRKENEGFGFVILTSKNKPPPGVIPHKIGRVIEGSPADRCGKLKVGDHISAVNGQSIVELSHDNIVQLIKDAGVTVTLTVIAEEEHHGPPSGTNSARQSPALQHRPMGQSQANHIPGDRSALEGEIGKDVSTSYRHSWSDHKHLAQPDTAVISVVGSRHNQNLGCYPVELERGPRGFGFSLRGGKEYNMGLFILRLAEDGPAIKDGRIHVGDQIVEINGEPTQGITHTRAIELIQAGGNKVLLLLRPGTGLIPDHGDWDINNPSSSNVIYDEQSPLPPSSHFASIFEESHVPVIEESLRVQICEKAEELKDIVPEKKSTLNENQPEIKHQSLLQKNVSKRDPPSSHGHSNKKNLLKVENGVTRRGRSVSPKKPASQHSEEHLDKIPSPLKNNPKRRPRDQSLSPSKGENKSCQVSTRAGSGQDQCRKSRGRSASPKKQQKIEGSKAPSNAEAKLLEGKSRRIAGYTGSNAEQIPDGKEKSDVIRKDAKQNQLEKSRTRSPEKKIKRMVEKSLPSKMTNKTTSKEVSENEKGKKVTTGETSSSNDKIGENVQLSEKRLKQEPEEKVVSNKTEDHKGKELEAADKNKETGRFKPESSSPVKKTLITPGPWKVPSGNKVTGTIGMAEKRQ | binds | binds | – |
| Cytosolic PRRG4 in a mammalian expression vector (domain or fragment, UniProt Q9BZD6 138-226) LCITKCNRLQHPCSSAVYERGRHTPSIIFRRPEEAALSPLPPSVEDAGLPSYEQAVALTRKHSVSPPPPYPGHTKGFRVFKKSMSLPSH | – | – | binding [3]: no binding; binding [4]: no binding; binding [5]: binds; binding [6]: no binding |
| FLAG-Myc-tagged OSTF (protein, UniProt Q92882 1-214) MSKPPPKPVKPGQVKVFRALYTFEPRTPDELYFEEGDIIYITDMSDTNWWKGTSKGRTGLIPSNYVAEQAESIDNPLHEAAKRGNLSWLRECLDNRVGVNGLDKAGSTALYWACHGGHKDIVEMLFTQPNIELNQQNKLGDTALHAAAWKGYADIVQLLLAKGARTDLRNIEKKLAFDMATNAACASLLKKKQGTDAVRTLSNAEDYLDDEDSD | no binding | – | – |
